This sample is rich in variants without activity.
B1: TPR 5TU (parent)
chain: GGAUCUUCUCGAUCUAACAAAAAAGACAAAUCUGCCACAAAGCUUGAGAGCAUCUUCGGAUGCAGAGGCGGCAGCCUUCGGUGGCGCGAUAGCGCCAACGUUCUCAACUAUGACACGCAAAACGCGUGCUCCGUUGAAUGGAGUUUAUCAUG

Variants of: B1
Assay: polymerase ribozyme fitness, log enrichment relative to wild type (log ratio); higher = more active; in vitro selection for triplet polymerase activity
In short: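 Frozen incubation at −7 °C formed the core of a single, triplicate in vitro selection round applied to PCR-built, transcribed mutant libraries of each subunit of a heterodimeric triplet polymerase ribozyme. Extended constructs were gel-excised, captured with streptavidin beads and amplified by RT-PCR, and input and output libraries were Illumina-sequenced with a filter of ≥10 input reads and ≥1 read per output. Fitness is the logarithm of genotype enrichment relative to wild-type enrichment, with inverse-variance-weighted replicate averaging, and the logarithm is base 2.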

Variant | polymerase ribozyme fitness (log ratio)
U15G A16G A19U A52G G67C C87G G88A G126A | ≤ -4.2
A16C C18G C36U A47G C75A C87U A115U U144A | ≤ -4.2
U15G A26C U55A G83U U102G C125G G143C | ≤ -4.2
A16C G71A G84A A107G A137G | ≤ -4.2
A16U A24G U53A G59U C85A A138C | ≤ -4.2
A16C C87U U102C A147C | ≤ -4.2
U15G C36U C51G C75G C93U C108U C125U G136A | ≤ -4.2
A17G C51G C85A G92A G140U U145G | ≤ -4.2
C18A G83A C85G C114G A115C A120U U135A | ≤ -4.2
A16G A21U C105G U127C | ≤ -4.2
A17U A20G A23G A40C U134A | ≤ -4.2
A16C U61A G88U U102A G136A A137G | ≤ -4.2
A17G C57U U61A U78C C103U G141U | ≤ -4.2
A16U C18A C35A C79A C85G G94A C96A | ≤ -4.2
A17U A24G C57U G58C C85U G86A | ≤ -4.2
A16U C132G | ≤ -4.2
A16C G48A G50C C96U G100U U139G | ≤ -4.2
U15G A16G A47U G58A C69U A89G A98U | ≤ -4.2
U15A A17C C18A A28C C87A G92U C95U U109A U148G U151G | ≤ -4.2
A17G C36A A49C A60G C118U U145G | ≤ -4.2
C18G A22C C36G G83C G84A G92A A137C G143C | ≤ -4.2

Variant | polymerase ribozyme fitness (log ratio)
U15G G50A C85U G126C A138G | ≤ -4.2
A16G A39C A60C C63G | ≤ -4.2
A16G A20C A22U A64C C93U U151G | ≤ -4.2
U15C A23C G50C U56A G94A U139G | ≤ -4.2
A16U A30U G34A C99G G141A U148A | ≤ -4.2
C18A U33G C36U G58C G94A C123G A138G | ≤ -4.2
A17C A28G G83C G84A C87A A89G C105G G140U G152C | ≤ -4.2
A16C G42C A91G C131G | ≤ -4.2
U15G A22G A49C C95A C96G G140C | ≤ -4.2
U15A G42C U55A A106G U151A | ≤ -4.2
A16U A39G A91C C96U A106C G141C G143U U145A G152U | ≤ -4.2
A17U G92U C103G U109G G117U A142G | ≤ -4.2
C18G C35A U55G C95U | ≤ -4.2
U15G A20U G68A A73G G83U G84A C96A C114G G140C | ≤ -4.2
A16C A23U A113C | ≤ -4.2
C18G A30C C72A | ≤ -4.2
A16U A52G C87A A97C G136U | ≤ -4.2
A16C A21C G81A G92U G94C A115C A122U G126U | ≤ -4.2
A16G C54U G88C U145C | ≤ -4.2
U15G A19U C54A U56G A106G U148C | ≤ -4.2
A16U A24G A28C A41C C54A A106U U144A | ≤ -4.2

Variant | polymerase ribozyme fitness (log ratio)
A17G U45A C54U G58A C76U G88C A110C U144A | ≤ -4.2
A17U A22U G42U A49C G50C C76A G84U | ≤ -4.2
A17U A37C C93G C96A C131G | ≤ -4.2
A16G A19C A30U A64G A73U G86U | ≤ -4.2
A17U C75A A91G G94C U146C U148A U151A | ≤ -4.2
C18A U53G A66C G94C C99G C116G | ≤ -4.2
U15A U78C C85A C108U C118U | ≤ -4.2
A16U C32U U44A C93G | ≤ -4.2
U15C A52U C87G C132A | ≤ -4.2
A16C A19U U77A U90A G133U A142C | ≤ -4.2
A17G A26C A29G G58A A64U G86U C129A | ≤ -4.2
A16C A19G A73U G81C A91U C96U A107G G143C | ≤ -4.2
U15G G42C C85G C132G U146A | ≤ -4.2
A17U C87G A91C C103U C114U U144G | ≤ -4.2
A17C G83A G84A C114U A122U | ≤ -4.2
A16U A23U A28C A39U C79U G84A | ≤ -4.2
C14U U33C U45A A120G | ≤ -4.2
U15A C36U U102A U135G | ≤ -4.2
A16C A22U A41U C108A | ≤ -4.2
A17U C76G | ≤ -4.2
C14U U53G C95A C96G U102G A107G G141A | ≤ -4.2

Variant | polymerase ribozyme fitness (log ratio)
A16G C35U A49C U55A C95G U102A A119U A137U A142G | ≤ -4.2
A17G C72A U134A | ≤ -4.2
A17U C18G A28C C32A A40G C85U | ≤ -4.2
A17C C18A A49G U53A A73G G81U C87U C93G | ≤ -4.2
C18A A20C U31G G86U C131A | ≤ -4.2
A16G A21U A39U A49U A66C G86U A91G A97G C131A | ≤ -4.2
A16C G50U G67A A91G | ≤ -4.2
A16U A30G G50U G68A G80A G94A U144G | ≤ -4.2
U15A A16G C51G C93G A97U C118U A121G | ≤ -4.2
A16C A30U C54A G84A A122U | ≤ -4.2
A17C A30U A39U U53A G83C A89U A97G | ≤ -4.2
U15A A29C A41C G74U G88A C96A G128U U130G C131G | ≤ -4.2
A16U G34C G94C | ≤ -4.2
A16C C32U G48A C54A G81C C85G A97U U104G A120U | ≤ -4.2
A17U G25U A28G A41C C43U U55G G74A A91G C96G A137G | ≤ -4.2
A16C C32G C87U C105A | ≤ -4.2
A17U A52C G88C U90G | ≤ -4.2
A16U A29G A30G C85U | ≤ -4.2
C14U U44A U61A C75U U102C C131U | ≤ -4.2
A17G A26U A39C C57U C99U C114U C118U A122U | ≤ -4.2
A16U C18G C54U U55G C75G C87U C99U A120G A122U G140U U145A | ≤ -4.2

Source: the RNAGym collection of RNA variant scans (doi:10.1073/pnas.2313332121)
